# The other results are listed elsewhere or left out.
# B1: Nictaba (Nicotiana tabacum), Q94EW1 (protein)
# chain: MQGQWIAARDLSITWVDNPQYWTWKTVDPNIEVAELRRVAWLDIYGKIETKNLIRKTSYAVYLVFKLTDNPRELERATASLRFVNEVAEGAGIEGTTVFISKKKKLPGELGRFPHLRSDGWLEIKLGEFFNNLGEDGEVEMRLMEINDKTWKSGIIVKGFDIRPN
# What was measured:
# Test in all cases: glycan array binding signal (z-score within array); higher = stronger binding
# Details in all cases: glycan notation: IUPAC condensed, linker removed
# [1] = molecular target: Gal(b1-4)GlcNAc(b1-3)Gal(b1-4)GlcNAc(b1-3)[Gal(b1-4)GlcNAc(b1-3)Gal(b1-4)GlcNAc(b1-6)]GalNAc
# In short: (§1)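 Negative Z-scores can be read as non-binding. The Z-score is calculated within each array and then averaged across arrays of one protein sequence at different concentrations or buffers and across linkers. Arrays, 3228 in all, were curated from the Consortium for Functional Glycomics database and kept only where the protein sequence was available.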
# [2] = molecular target: Gal(b1-4)GlcNAc(b1-3)Gal(b1-4)GlcNAc(b1-6)[Gal(b1-3)]GalNAc
# In short: as §1
# [3] = molecular target: Gal(b1-4)GlcNAc(b1-3)Gal(b1-4)[Fuc(a1-3)GlcNAc(b1-6)]Gal(b1-4)Glc
# In short: as §1
# [4] = molecular target: Gal(b1-4)GlcNAc(b1-3)Gal(b1-4)[Fuc(a1-3)]GlcNAc(b1-3)Gal(b1-4)[Fuc(a1-3)]GlcNAc
# In short: as §1
# [5] = molecular target: Gal(b1-4)GlcNAc(b1-3)GalNAc
# In short: as §1
# [6] = molecular target: Gal(b1-4)GlcNAc(b1-3)[Fuc(a1-3)GlcNAc(b1-6)]Gal(b1-4)Glc
# In short: as §1
# [7] = molecular target: Gal(b1-4)GlcNAc(b1-3)[Gal(b1-4)GlcNAc(b1-6)]Gal(b1-4)GlcNAc
# In short: as §1
# [8] = molecular target: Gal(b1-4)GlcNAc(b1-3)[Gal(b1-4)GlcNAc(b1-6)]GalNAc
# In short: as §1
# [9] = molecular target: Gal(b1-4)GlcNAc(b1-3)[GlcNAc(b1-6)]Gal(b1-4)GlcNAc
# In short: as §1
# [10] = molecular target: Gal(b1-4)GlcNAc(b1-6)Gal(b1-4)GlcNAc
# In short: as §1
# [11] = molecular target: Gal(b1-4)GlcNAc(b1-6)GalNAc
# In short: as §1
# [12] = molecular target: Gal(b1-4)GlcNAc(b1-6)[Gal(b1-3)]GalNAc
# In short: as §1
# [13] = molecular target: Gal(b1-4)GlcNAc(b1-6)[Gal(b1-3)]GlcNAc
# In short: as §1
# [14] = molecular target: Gal(b1-4)GlcNAc(b1-6)[Gal(b1-4)GlcNAc(b1-3)]GalNAc
# In short: as §1
# [15] = molecular target: Gal(b1-4)GlcNAc6P
# In short: as §1
# [16] = molecular target: Gal(b1-6)Gal
# In short: as §1
# [17] = molecular target: Gal3S(b1-3)GalNAc
# In short: as §1
# [18] = molecular target: Gal3S(b1-3)GlcNAc
# In short: as §1
# [19] = molecular target: Gal3S(b1-3)[Fuc(a1-4)]GlcNAc
# In short: as §1
# [20] = molecular target: Gal3S(b1-4)Glc
# In short: as §1
# [21] = molecular target: Gal3S(b1-4)Glc6S
# In short: as §1
# [22] = molecular target: Gal3S(b1-4)GlcNAc
# In short: as §1
# [23] = molecular target: Gal3S(b1-4)GlcNAc6S
# In short: as §1
# [24] = molecular target: Gal3S(b1-4)[Fuc(a1-3)]Glc
# In short: as §1
# [25] = molecular target: Gal3S(b1-4)[Fuc(a1-3)]Glc6S
# In short: as §1
# [26] = molecular target: Gal3S(b1-4)[Fuc(a1-3)]GlcNAc
# In short: as §1
# [27] = molecular target: Gal3S(b1-4)[Fuc(a1-3)]GlcNAc6S
# In short: as §1
# [28] = molecular target: Gal3S4S(b1-4)GlcNAc
# In short: as §1
# [29] = molecular target: Gal3S6S(b1-4)GlcNAc
# In short: as §1
# [30] = molecular target: Gal3S6S(b1-4)GlcNAc6S
# In short: as §1
# [31] = molecular target: Gal4S(b1-4)GlcNAc
# In short: as §1
# [32] = molecular target: Gal4S6S(b1-4)GlcNAc
# In short: as §1
# [33] = molecular target: Gal6P(b1-4)GlcNAc
# In short: as §1
# [34] = molecular target: Gal6S(b1-3)GlcNAc
# In short: as §1
# [35] = molecular target: Gal6S(b1-3)GlcNAc6S
# In short: as §1
# [36] = molecular target: Gal6S(b1-4)Glc
# In short: as §1
# [37] = molecular target: Gal6S(b1-4)Glc6S
# In short: as §1
# [38] = molecular target: Gal6S(b1-4)GlcNAc
# In short: as §1
# [39] = molecular target: Gal6S(b1-4)GlcNAc6S
# In short: as §1
# [40] = molecular target: GalNAc(a1-3)Gal
# In short: as §1
# [41] = molecular target: GalNAc(a1-3)GalNAc
# In short: as §1
# [42] = molecular target: GalNAc(a1-3)GalNAc(a1-3)Gal(a1-4)Gal(b1-4)GlcNAc
# In short: as §1
# [43] = molecular target: GalNAc(a1-3)GalNAc(b1-3)Gal(a1-4)Gal(b1-4)Glc
# In short: as §1
# [44] = molecular target: GalNAc(a1-3)GalNAc(b1-3)Gal(a1-4)Gal(b1-4)GlcNAc
# In short: as §1
# [45] = molecular target: GalNAc(b1-3)Gal
# In short: as §1
binder,measurement,setting,value
B1,glycan array binding signal (z-score),[1],-0.378
same,glycan array binding signal (z-score),[2],-0.388
same,glycan array binding signal (z-score),[3],-0.218
same,glycan array binding signal (z-score),[4],-0.253
same,glycan array binding signal (z-score),[5],-0.278
same,glycan array binding signal (z-score),[6],-0.384
same,glycan array binding signal (z-score),[7],-0.242
same,glycan array binding signal (z-score),[8],-0.269
same,glycan array binding signal (z-score),[9],-0.34
same,glycan array binding signal (z-score),[10],-0.29
same,glycan array binding signal (z-score),[11],-0.327
same,glycan array binding signal (z-score),[12],-0.301
same,glycan array binding signal (z-score),[13],-0.427
same,glycan array binding signal (z-score),[14],-0.385
same,glycan array binding signal (z-score),[15],-0.387
same,glycan array binding signal (z-score),[16],-0.269
same,glycan array binding signal (z-score),[17],-0.278
same,glycan array binding signal (z-score),[18],-0.337
same,glycan array binding signal (z-score),[19],-0.334
same,glycan array binding signal (z-score),[20],-0.263
same,glycan array binding signal (z-score),[21],-0.242
same,glycan array binding signal (z-score),[22],-0.204
same,glycan array binding signal (z-score),[23],-0.163
same,glycan array binding signal (z-score),[24],-0.278
same,glycan array binding signal (z-score),[25],-0.24
same,glycan array binding signal (z-score),[26],-0.386
same,glycan array binding signal (z-score),[27],-0.385
same,glycan array binding signal (z-score),[28],-0.289
same,glycan array binding signal (z-score),[29],-0.244
same,glycan array binding signal (z-score),[30],-0.22
same,glycan array binding signal (z-score),[31],-0.132
same,glycan array binding signal (z-score),[32],-0.303
same,glycan array binding signal (z-score),[33],-0.384
same,glycan array binding signal (z-score),[34],-0.322
same,glycan array binding signal (z-score),[35],-0.248
same,glycan array binding signal (z-score),[36],-0.275
same,glycan array binding signal (z-score),[37],-0.226
same,glycan array binding signal (z-score),[38],-0.214
same,glycan array binding signal (z-score),[39],-0.28
same,glycan array binding signal (z-score),[40],-0.277
same,glycan array binding signal (z-score),[41],-0.304
same,glycan array binding signal (z-score),[42],-0.188
same,glycan array binding signal (z-score),[43],-0.277
same,glycan array binding signal (z-score),[44],-0.276
same,glycan array binding signal (z-score),[45],-0.308

# Source: the supplement of paper PMC8728848
